The whole screen tested about 350,000 compounds, of which about 260 (0.074%) were called active. This list was built around the results that the source calls inconclusive (neither active nor inactive); the mix of calls is not that of the screen. The call rests on the fitted dose curve; in most records, active means well fitted inhibition curve with a large enough effect; inconclusive means small, poorly fitted or top-dose-only effect; inactive means no such curve, though single readings can be large or run the other way. Potencies beside an inconclusive call are fits to weak or partial responses and may not hold up.
These compounds were tested against Ferritin light chain (Equus caballus) (UniProt P02791) (assay: qHTS Assay for Identification of Novel General Anesthetics). Details: apoferritin/1-aminoanthracene competitive binding, fluorescence; activity change, negative = displacement: at 77.5 µM (top of the series).
Sequence of UniProt P02791 (P02791 whole entry, looked up): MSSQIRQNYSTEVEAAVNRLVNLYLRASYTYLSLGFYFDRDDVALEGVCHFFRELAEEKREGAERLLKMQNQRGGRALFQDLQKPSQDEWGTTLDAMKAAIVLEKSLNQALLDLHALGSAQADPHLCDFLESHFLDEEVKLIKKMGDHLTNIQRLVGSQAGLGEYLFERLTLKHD
Outline: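 Read-out: endpoint 1-AMA fluorescence, excitation 380 nm and emission 535 nm, after compounds sit 10 min at room temperature with 10 uM horse-spleen apoferritin in 50% saturated 1-AMA/PBS. Values come from four-parameter Hill fits.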
Further: nearly all actives have a fitted effect of over 20% in size.
On the % scale 0 is the no-effect control and ±100 the full control effect; potency means the concentration at half of the fitted maximal effect; tags describe the fitted curve by direction and shape.

Potency, inconclusive:
Cc1ccc2ccc3cc(C(=O)N4CCN(c5ccccc5)CC4)nc3c2[nH]1 5.01 µM [inhibitor, single point]
O=C(c1cc(C2CC2)nc2ccccc12)N1N=C(C(F)F)CC1(O)C(F)F (centres undefined) 0.794 µM [inhibitor, full curve, poor fit]
C/C(CC(=O)Nc1ccccn1)=N\NC(=O)C(=O)Nc1cccc(C)c1 35.5 µM [inhibitor, partial curve]
CCN1C(=O)[C@H]2[C@@H](c3ccc(C)cc3)N3C(=O)N(c4ccc(C(F)(F)F)cc4)C(=O)[C@@]3(CC(C)C)[C@H]2C1=O 4.47 µM [inhibitor, full curve, poor fit]
CCCCCCCCCC(=O)N/N=C/c1ccc(C)s1 11.2 µM [inhibitor, partial curve]
C=CCN1C(=O)CSc2ccc(C(=O)NCCC3=CCCCC3)cc21 17.8 µM [inhibitor, partial curve]
COc1ccccc1OCc1ccc(C(=O)N2N=C(C(F)F)CC2(O)C(F)F)o1 (centres undefined) 31.6 µM [inhibitor, partial curve]
O=C(Nc1ccc2c(c1)C(=O)N(CC1CCCO1)C2=O)c1ccc(Cl)c(Cl)c1 (centres undefined) 3.55 µM [inhibitor, full curve, poor fit]
Cc1cc(C)nc(SCC(=O)c2ccc(C)c(C)c2)n1 35.5 µM [inhibitor, single point]
COc1cccc(S(=O)(=O)Nc2ccc3c(c2)OCCO3)c1 28.2 µM [inhibitor, partial curve]
O=C(CCCCn1c(=S)[nH]c2ccsc2c1=O)NCc1ccc2c(c1)OCO2 35.5 µM [inhibitor, single point]
Cc1ccccc1-c1nnc(SCc2ccccc2F)o1 25.1 µM [inhibitor, partial curve]
CCOC(=O)C1=C(C)N=C2c3ccccc3C(=O)C2C1c1ccc(Cl)cc1 (centres undefined) 8.91 µM [inhibitor, partial curve]
Cn1c(SCC(=O)N2CCN(c3ccccc3)CC2)nnc1-c1c[nH]c2ccccc12 20 µM [inhibitor, partial curve]
O=C(COC(=O)CCCOc1ccc(Cl)cc1Cl)NCc1ccc(F)cc1 39.8 µM [inhibitor, partial curve]
Cc1cc(/C=N\NC(=O)CC(=O)NC2CCCCC2)c(C)n1-c1cccc(Cl)c1Cl 20 µM [inhibitor, partial curve]
CCCCN(CC)C(=O)Cc1ccccc1OC 35.5 µM [inhibitor, partial curve]
Oc1ccc(C(=S)N2CCN(c3cccc(Cl)c3)CC2)cc1 17.8 µM [inhibitor, partial curve]
O=C(Cn1ncc2c3ccccc3n(Cc3ccccc3F)c2c1=O)N1CCCCC1 3.55 µM [inhibitor, full curve]
COc1ccccc1CNC(=O)c1ccc(N2CCCC2)c(NC(=O)NCc2ccc(F)cc2)c1 0.708 µM [inhibitor, partial curve, poor fit]
CSc1ccc(S(=O)(=O)Nc2ccc3c4c(cccc24)CC3)cc1 4.47 µM [inhibitor, full curve, poor fit]
O=C1C(Nc2ccccc2)=CC(=O)c2ncccc21 35.5 µM [inhibitor, single point]
CC(=O)Oc1ccc2occ(C(=O)c3cccs3)c2c1 56.2 µM [inhibitor, single point]
COc1ccc(NC(=O)c2nc[nH]c2C(=O)NCC(=O)OC(C)(C)C)cc1 22.4 µM [inhibitor, partial curve]
O=C(CSc1nccn1Cc1ccc(Cl)cc1)NCc1ccccc1 31.6 µM [inhibitor, partial curve]
N#Cc1c(Cl)nc(N/N=C/c2ccccc2)c(Cl)c1Cl 11.2 µM [inhibitor, full curve]
Cc1cc(-c2ccccc2)nc(N(C)NC(=O)c2c(F)cccc2F)c1S(C)(=O)=O 14.1 µM [inhibitor, partial curve, poor fit]
O=C1c2ccccc2S(=O)(=O)N1CCOc1ccc(F)cc1 44.7 µM [inhibitor, partial curve]
COC(=O)C1=C(c2ccccc2)c2ccccc2S(=O)(=O)N1CC(=O)Nc1ccc(OC)cc1OC 10 µM [inhibitor, partial curve, poor fit]
Cc1ccc(-n2nc3c(c2NC(=O)c2cc4ccccc4o2)CS(=O)(=O)C3)cc1 28.2 µM [inhibitor, partial curve]
Cc1ccc(CNC(=O)CO/N=C/c2ccc3c(c2)OCO3)cc1 22.4 µM [inhibitor, partial curve]
NC(=S)NNc1cccc2cccnc12 28.2 µM [inhibitor, partial curve]
COC(=O)c1nn(-c2ccc(OC)cc2)c(=O)cc1Oc1cccc(Cl)c1 22.4 µM [inhibitor, partial curve]
N/C(=N\OC(=O)Cc1ccc(-c2ccccc2)cc1)c1ccccn1 31.6 µM [inhibitor, single point]
Cc1ccc(CN(C(=O)c2cc(=O)c3cc(Cl)c(C)cc3o2)C2CCS(=O)(=O)C2)cc1 (centres undefined) 39.8 µM [inhibitor, partial curve]
COc1cccc(CNC(=O)CS(=O)(=O)Cc2nc(-c3ccc(C)cc3)oc2C)c1OC 25.1 µM [inhibitor, partial curve]
O=C(CCCN1C(=O)/C(=C\c2ccccc2)SC1=S)Nc1ccc(O)cc1C(=O)O 28.2 µM [inhibitor, partial curve]
CC(=O)Nc1nnc(SCC(=O)c2ccc(F)cc2)s1 35.5 µM [inhibitor, partial curve]
CC1CCN(C(=O)CSc2c3c(nc4cc(Cl)ccc24)CCCC3)CC1 31.6 µM [inhibitor, partial curve]
CC12CCC(C(=O)N3CCCc4ccccc43)(OC1=O)C2(C)C (centres undefined) 25.1 µM [inhibitor, partial curve]
CCOc1ccccc1NC(=O)CSC1=Nc2ccccc2C2=NC(CC(=O)NC3CCCCC3)C(=O)N12 (centres undefined) 39.8 µM [inhibitor, partial curve]
Cc1ccc(CN=c2c([N+](=O)[O-])nn(-c3cccc(C)c3)n2O)cc1 35.5 µM [inhibitor, single point]
CCOC(=O)N1CCC(NC(=O)c2cc(C(=O)Nc3cccc(C(F)(F)F)c3)ccc2CO)CC1 35.5 µM [inhibitor, single point]
COc1ccc(/C(N)=C/C(=O)C(C)(C)C)cc1 35.5 µM [inhibitor, partial curve]
COc1ccccc1CC(=O)N1CCN(c2ccc([N+](=O)[O-])cc2)CC1 25.1 µM [inhibitor, partial curve]
O=C(NCCN1CCOCC1)C(=O)NCC1OCCN1S(=O)(=O)c1ccccc1 (centres undefined) 3.55 µM [inhibitor, full curve, poor fit]
Cc1[nH]c2ccccc2c1C(=O)C(=O)NCCC1=CCCCC1 50.1 µM [inhibitor, single point]
CCCc1cc(-c2n[nH]c(=S)n2Cc2ccccc2)cs1 28.2 µM [inhibitor, partial curve]

Potency, inactive:
Cc1cc(Cl)ccc1NC(=O)C1CCN(c2nnc(-n3c(C)ccc3C)s2)CC1
CC(=O)Nc1ccc(S(=O)(=O)N2CCN(C(=O)C3COc4ccccc4O3)CC2)cc1 (centres undefined)
Cc1nn(-c2ccc(N3CCCC3)nn2)c(C)c1CCC(=O)NCc1ccc(OC(C)C)cc1
CN1CCN(c2cc(N3CCc4ccccc4C3)c(F)cc2[N+](=O)[O-])CC1
CCOC(=O)c1cccc(NC(=O)c2cncc(Br)c2)c1
COC(=O)Cn1c(=NC(=O)c2sc3ccccc3c2Cl)sc2cc(S(N)(=O)=O)ccc21
O=C(Nc1ccncc1)c1ccc2c(c1)S(=O)(=O)c1ccccc1C2=O
COc1cc(OC)c(CNC2CCCCCC2)cc1Br
CCCCc1nc2ccccc2c(NC(=O)CNC(C)(C)C)c1CCC
CC1(OC(=O)CCc2ccccc2)C(=O)C=C2C=C(c3ccc(C#N)cc3)N(C3CCCCC3)C=C2C1=O (centres undefined)
Cc1ccc(OCCCC(=O)N2CCOCC2)cc1
C/C(=N\NC(=S)NCCc1ccccc1)c1ccc(Cl)cc1Cl
Cc1ccc(C)c(NC(=S)Nc2ncccc2C)c1
S=C(c1ccc(-c2ccc(Cl)c(Cl)c2)o1)N1CCOCC1

Activity change, negative = displacement, inactive:
CC1(C)OC(C(O)(c2cccc3c2oc2ccccc23)c2cccc3c2oc2ccccc23)C(C(O)(c2cccc3c2oc2ccccc23)c2cccc3c2oc2ccccc23)O1 (centres undefined) 4.23% [at 15.3 µM]
COC(=O)NC(/C(C(=O)OC)=C(\C)NCc1ccccc1)c1cccc(C)c1 (centres undefined) 6.66% [at 15.3 µM]
